The other results are listed elsewhere or left out.
Columns and labels:
[1] = test system: HSkMC (human skeletal muscle cells); assay: cytotoxicity call (relative viability < 0.9); settings: 10 µM
[2] = test system: HepG2; assay: cytotoxicity call (relative viability < 0.9); settings: 10 µM
[3] = test system: S. aureus RN4220; assay: growth inhibition call (relative growth <= 0.2); settings: 50 µM

Compound | cytotoxicity call [1] | cytotoxicity call [2] | growth inhibition call [3]
c1ccc(C(c2c[nH]c3ccccc23)c2c[nH]c3ccccc23)nc1 | inactive | inactive | inactive
O=C(C[C@@H]1C[C@@H]2c3cc(NC(=O)Cc4ccncc4)ccc3O[C@@H]2[C@@H](CO)O1)NCc1ccc2c(c1)OCO2 | inactive | inactive | inactive
O=C(O)CCCCCCC(=O)Nc1ccc([C@H]2O[C@@H](CSc3ccncc3)C[C@H](c3ccccc3)O2)cc1 | inactive | inactive | inactive
O=C(NCC[C@@H]1CC[C@H](NS(=O)(=O)c2cccc(F)c2)[C@@H](CO)O1)C1CC1 | inactive | inactive | inactive
CC(C)NC(=O)N(C)C[C@H]1Oc2c(NS(=O)(=O)c3ccc(Cl)cc3)cccc2C(=O)N([C@@H](C)CO)C[C@H]1C | inactive | inactive | inactive
CC(C)C1=CC2=CC[C@H]3[C@](C)(CO)CCC[C@]3(C)[C@@H]2CC1 | inactive | inactive | inactive
O=C(N[C@H]1CC[C@@H](CC(=O)N2CCOCC2)O[C@H]1CO)c1ccccn1 | inactive | inactive | inactive
COCC(=O)Nc1ccc2c(c1)C(=O)N(C)C[C@@H](OC)[C@H](C)CN(C(=O)Cc1ccccn1)[C@@H](C)CO2 | inactive | inactive | inactive
C[C@H](CO)N1C[C@H](C)[C@H](CN(C)C(=O)Nc2ccc3c(c2)OCO3)Oc2ccc(NC(=O)CCN3CCOCC3)cc2CC1=O | inactive | inactive | inactive
CO[C@@H]1CN(C)C(=O)c2ccc(NS(C)(=O)=O)cc2OC[C@H](C)N(C(=O)CN(C)C)C[C@@H]1C | inactive | inactive | inactive
O=C(O[C@@H]1O[C@H]2COC(=O)c3cc(O)c(O)c(O)c3-c3c(cc(O)c(O)c3O)C(=O)O[C@@H]([C@H]1O)[C@@H]2OC(=O)c1cc(O)c(O)c(O)c1-c1c(C(=O)O)cc(O)c(O)c1O)c1cc(O)c(O)c(O)c1 | inactive | active | inactive
COc1ccc(NC(=O)Nc2ccc3c(c2)CC(=O)N([C@@H](C)CO)C[C@H](C)[C@H](CN(C)C(=O)Nc2cccc4ccccc24)O3)cc1 | inactive | inactive | inactive
COCCN1C[C@H]2COC[C@@H](C(=O)N3CCCO3)[C@H]2C1 | inactive | inactive | inactive
C/C=C/c1cccc(-c2nc(C(=O)NCc3cccc(OC)c3)cc3c2[C@@H](CCO)N([S@](=O)C(C)(C)C)C3)c1 | inactive | inactive | inactive
C[C@H](CO)N1C[C@H](C)[C@H](CN(C)Cc2ccc(O)cc2)OCc2ccccc2-c2c(n(C)c3ccccc23)C1=O | inactive | inactive | inactive
COc1ccccc1NC(=O)N(C)C[C@H]1Oc2ncc(C#CCN(C)C)cc2C(=O)N([C@@H](C)CO)C[C@H]1C | inactive | inactive | inactive
C[C@@H]1CN([C@@H](C)CO)C(=O)c2cc(NC(=O)Nc3cccc4ccccc34)ccc2O[C@@H]1CN(C)Cc1ccc(Oc2ccccc2)cc1 | active | active | inactive
COc1cccc(CNC(=O)C[C@H]2C=C[C@@H](NC(=O)C3CCOCC3)[C@H](CO)O2)c1 | inactive | inactive | inactive
CSCC[C@H](NC(=O)[C@H](Cc1c[nH]c2ccccc12)NC(=O)CNC(=O)[C@@H](NC(=O)[C@H](Cc1ccc(OS(=O)(=O)O)cc1)NC(=O)[C@H](CC(=O)O)NC(=O)[C@H](CCC(N)=O)NC(=O)[C@@H]1CCC(=O)N1)[C@@H](C)O)C(=O)N[C@@H](CC(=O)O)C(=O)N[C@@H](Cc1ccccc1)C(N)=O | inactive | inactive | inactive
c1cn(-c2ccc(-n3ccnc3)nn2)cn1 | inactive | inactive | inactive
C[C@@H]1CCCCO[C@@H](CN(C)C(=O)NC2CCCCC2)[C@H](C)CN([C@@H](C)CO)C(=O)c2cc(NC(=O)CCC(F)(F)F)ccc2O1 | inactive | inactive | inactive
C[C@H](CO)N1C[C@H](C)[C@@H](CN(C)C(=O)Nc2ccc(F)cc2)Oc2c(NS(C)(=O)=O)cccc2C1=O | inactive | inactive | inactive
CC(CCC(=O)O)C1CCC2C3CC(O)C4CC(O)CCC4(C)C3CCC12C (stereo not drawn) [alpha-HYDROXYDEOXYCHOLIC ACID ] | inactive | inactive | –
C[C@@H](Sc1nc2ncnc(N)c2[nH]1)C(=O)O | inactive | inactive | inactive
CC1(C)CCC2(C)CCC3(C)C(=CCC4C5(C)CCC(O)C(C)(C)C5CCC43C)C2C1 (stereo not drawn) [beta-AMYRIN ] | inactive | inactive | –
Cc1ccc(S(=O)(=O)N(C)C[C@@H]2Oc3ccc(NC(=O)NC(C)C)cc3CC(=O)N([C@H](C)CO)C[C@@H]2C)cc1 | inactive | inactive | inactive
O=C1c2c(O)cc(CO)cc2C(OC2OC(CO)C(O)C(O)C2O)c2cccc(OC3OC(CO)C(O)C(O)C3O)c21 (stereo unspecified) [CASANTHRANOL [cascaroside A shown]] | – | – | inactive
CC1(C)CCC2(C)CCC3(C)C(=CCC4C5(C)CCC(O)C(C)(C)C5CCC43C)C2C1 (stereo not drawn) [beta-AMYRIN] | – | – | inactive

Compound | cytotoxicity call [1] | cytotoxicity call [2] | growth inhibition call [3]
CC(C=CC=C(C)C=CC1=C(C)CCCC1(C)C)=CC=CC=C(C)C=CC=C(C)C=CC1=C(C)CCCC1(C)C [beta-CAROTENE [2mM]] | – | – | inactive
CC(CCC(=O)O)C1CCC2C3CC(O)C4CC(O)CCC4(C)C3CCC12C (stereo not drawn) [alpha-HYDROXYDEOXYCHOLIC ACID] | – | – | inactive
C[C@@H]1CCCCO[C@@H](CN(C)S(=O)(=O)c2ccc(F)cc2)[C@H](C)CN([C@H](C)CO)C(=O)c2cc(NS(=O)(=O)c3cn(C)cn3)ccc2O1 | inactive | inactive | inactive
CC(C=CC=C(C)C=CC1=C(C)CCCC1(C)C)=CC=CC=C(C)C=CC=C(C)C=CC1=C(C)CCCC1(C)C [beta-CAROTENE [2mM] ] | inactive | inactive | –
CNC1C(OC2C(OC3C(O)C(O)C(NC(=N)N)C(O)C3NC(=N)N)OC(C)C2(O)C=O)OC(CO)C(O)C1O.O=S(=O)(O)O (stereo unspecified) [STREPTOMYCIN SULFATE [5mM; 10% aq DMSO + 5mM ethanolamine]] | – | – | active
CC12CCCC(O)(C1)C1CC(C)(C)C1CC2 (stereo not drawn) [beta-CARYOPHYLLENE ALCOHOL] | – | – | inactive
COc1ccc(NC(=O)Nc2ccc3c(c2)CC(=O)N([C@H](C)CO)C[C@@H](C)[C@H](CN(C)Cc2ccc(C(F)(F)F)cc2)O3)cc1 | inactive | inactive | inactive
CC12CCCC(O)(C1)C1CC(C)(C)C1CC2 (stereo not drawn) [beta-CARYOPHYLLENE ALCOHOL ] | inactive | inactive | –
C[C@H](CO)N1C[C@H](C)[C@@H](CN(C)S(=O)(=O)c2cn(C)cn2)Oc2ncc(Br)cc2C1=O | inactive | inactive | inactive
Cc1c(C)c2c(c(C)c1O)CCC(C)(CCCC(C)CCCC(C)CCCC(C)C)O2 (stereo not drawn) [alpha-TOCHOPHEROL [4 mM] ] | inactive | inactive | –
CCC=CCC=CCC=CCC=CCC=CCCCC(=O)OCC [OMEGA-3-ACID ESTERS (EPA shown)] | – | – | inactive
O=c1cccc(C=Cc2ccc3c(c2)OCO3)o1 [6-(3,4-METHYLENEDIOXYSTYRYL)-alpha-PYRONE ] | inactive | inactive | –
O=C1c2c(O)cc(CO)cc2C(OC2OC(CO)C(O)C(O)C2O)c2cccc(OC3OC(CO)C(O)C(O)C3O)c21 (stereo unspecified) [CASANTHRANOL [cascaroside A shown] ] | inactive | inactive | –
CC(C)CC#Cc1cnc2c(c1)C(=O)N([C@H](C)CO)C[C@H](C)[C@@H](CN(C)S(=O)(=O)c1cn(C)cn1)O2 | inactive | inactive | inactive
C[C@H]1CN([C@@H](C)CO)C(=O)c2cccc(NC(=O)c3ccc(-c4nccs4)cc3)c2O[C@@H]1CN(C)C(=O)Nc1ccc(F)cc1 | inactive | inactive | inactive
CCC=CCC=CCC=CCC=CCC=CCCCC(=O)OCC [OMEGA-3-ACID ESTERS (EPA shown) ] | inactive | inactive | –
Cc1c(C)c2c(c(C)c1O)CCC(C)(CCCC(C)CCCC(C)CCCC(C)C)O2 (stereo not drawn) [alpha-TOCHOPHEROL [4 mM]] | – | – | inactive
COc1ccc(NC(=O)Nc2ccc3c(c2)C(=O)N([C@@H](C)CO)C[C@@H](C)[C@@H](CN(C)C(=O)Nc2ccccc2)OCCCC[C@H](C)O3)cc1 | inactive | inactive | inactive
CNC1C(OC2C(OC3C(O)C(O)C(NC(=N)N)C(O)C3NC(=N)N)OC(C)C2(O)C=O)OC(CO)C(O)C1O.O=S(=O)(O)O (stereo unspecified) [STREPTOMYCIN SULFATE [5mM; 10% aq DMSO + 5mM ethanolamine] ] | inactive | inactive | –
CN1C(=O)c2cc(NC(=O)c3ccc(F)c(F)c3)ccc2OC[C@@H]2O[C@@H](CC(=O)N3CCOCC3)CC[C@H]21 | inactive | inactive | inactive
C[C@H](CO)N1C[C@H](C)[C@@H](CN(C)S(=O)(=O)c2cn(C)cn2)Oc2cc(C#Cc3cccc(F)c3)ccc2S1(=O)=O | inactive | inactive | inactive
Cl.NCCCC(=O)O [gamma-AMINOBUTYRIC ACID HYDROCHLORIDE ] | inactive | inactive | –
CC(=O)Oc1cccc(C)c1 [meta-CRESYL ACETATE ] | inactive | inactive | –
Cl.NCCCC(=O)O [gamma-AMINOBUTYRIC ACID HYDROCHLORIDE] | – | – | inactive
CC(=O)Oc1c(C)c(C)c2c(c1C)CCC(C)(CCCC(C)CCCC(C)CCCC(C)C)O2 (stereo not drawn) [alpha-TOCHOPHERYL ACETATE [4mM]] | – | – | inactive
CC(=O)Oc1cccc(C)c1 [meta-CRESYL ACETATE] | – | – | inactive
CC(=O)Oc1c(C)c(C)c2c(c1C)CCC(C)(CCCC(C)CCCC(C)CCCC(C)C)O2 (stereo not drawn) [alpha-TOCHOPHERYL ACETATE [4mM] ] | inactive | inactive | –
